Data from the supplement of paper PMC10369915.
The list shows a part of the results. No stated cut-off is given here; in the data, active = 3.2 or more and inactive = the rest. Most of these values are background signal.

The binders below were run against SHP2 C-SH2 domain E139D (assay: enrichment score (SH2-bound / input frequency) (ratio); bacterial display of known human phosphotyrosine sites (pTyr-Var adds point mutants) read by sequencing; higher = stronger binding; tyrosines were phosphorylated by kinases first). Details: peptide library: pTyr-Var.
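Further: displayed peptides selected on beads carrying the immobilized SH2 domain, with library peptides lacking any tyrosine serving as negative controls.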

Enrichment score, inactive:
TTEHIYGDKFF [UBA7_Y524_N527K] 0.746, KLKRSYPSPDI [USP8_Y717_S718P] 1.09, TQRPHYKGGGG [TYROBP_Y112_Y111H] 1.26, ADLTEYLSTHF [UQCRC1_Y219_YF] 1.04, KDFTIHNPNLL [VANGL1_Y290_Y290H] 1.17, AEPNIYQEKLS [USP54_Y1233_D1231N] 0.999, HNELFYEAAEH [VANGL1_Y345_E347A_YF] 1.05, YEDALYTVLHR [UNC13D_Y61] 0.939, DLNATYRTIQG [U2SURP_Y634] 0.802, FKDVTYLTEEK [UBE3A_Y127] 1.01, YEDTLYTVLHR [UNC13D_Y61_A59T] 1.08, AEPDIYQEKLS [USP54_Y1233] 0.541, NDDDVYRSLEE [VAV2_Y142] 0.638, NTQRPHYKGGG [TYROBP_Y111_Y111H] 1.06, REIHDYIKHLG [UNC13C_Y308_D304E] 1.35, GPQSLYNGLVA [UCP2_Y79_R76Q] 0.585, GRKTLYSFFSP [UNG_Y8_Q4R] 1.51, LHAAAYRNALA [UQCRC2_Y182] 0.733, VDSNPYSRLMA [UBA5_Y53] 0.753

Each binder was assayed against SHP2 C-SH2 domain wild-type in the same assay as above. Details: peptide library: pTyr-Var.

Enrichment score, inactive:
TTEHIYGDKFF [UBA7_Y524_N527K] 0.551, KLKRSYPSPDI [USP8_Y717_S718P] 0.616, TQRPHYKGGGG [TYROBP_Y112_Y111H] 1.23, ADLTEYLSTHF [UQCRC1_Y219_YF] 0.982, KDFTIHNPNLL [VANGL1_Y290_Y290H] 0.937, AEPNIYQEKLS [USP54_Y1233_D1231N] 0.919, HNELFYEAAEH [VANGL1_Y345_E347A_YF] 0.89, YEDALYTVLHR [UNC13D_Y61] 1.1, DLNATYRTIQG [U2SURP_Y634] 1.15, FKDVTYLTEEK [UBE3A_Y127] 0.759, YEDTLYTVLHR [UNC13D_Y61_A59T] 1.27, AEPDIYQEKLS [USP54_Y1233] 0.616, NDDDVYRSLEE [VAV2_Y142] 0.549, NTQRPHYKGGG [TYROBP_Y111_Y111H] 0.925, REIHDYIKHLG [UNC13C_Y308_D304E] 0.992, GPQSLYNGLVA [UCP2_Y79_R76Q] 0.576, GRKTLYSFFSP [UNG_Y8_Q4R] 0.875, LHAAAYRNALA [UQCRC2_Y182] 0.831, VDSNPYSRLMA [UBA5_Y53] 1.5

The binders below were run against SHP2 N-SH2 domain L43F in the same assay as above. Details: peptide library: pTyr-Var.

Enrichment score, inactive:
TTEHIYGDKFF [UBA7_Y524_N527K] 0.686, KLKRSYPSPDI [USP8_Y717_S718P] 0.517, TQRPHYKGGGG [TYROBP_Y112_Y111H] 1.11, ADLTEYLSTHF [UQCRC1_Y219_YF] 0.95, KDFTIHNPNLL [VANGL1_Y290_Y290H] 1.13, AEPNIYQEKLS [USP54_Y1233_D1231N] 0.927, HNELFYEAAEH [VANGL1_Y345_E347A_YF] 1.01, YEDALYTVLHR [UNC13D_Y61] 1.01, DLNATYRTIQG [U2SURP_Y634] 0.834, FKDVTYLTEEK [UBE3A_Y127] 0.777, YEDTLYTVLHR [UNC13D_Y61_A59T] 1.19, AEPDIYQEKLS [USP54_Y1233] 0.598, NDDDVYRSLEE [VAV2_Y142] 0.523, NTQRPHYKGGG [TYROBP_Y111_Y111H] 1.01, REIHDYIKHLG [UNC13C_Y308_D304E] 1.08, GPQSLYNGLVA [UCP2_Y79_R76Q] 0.632, GRKTLYSFFSP [UNG_Y8_Q4R] 1.2, LHAAAYRNALA [UQCRC2_Y182] 0.559, VDSNPYSRLMA [UBA5_Y53] 0.662

These binders were tested against SHP2 N-SH2 domain T42A in the same assay as above. Details: peptide library: pTyr-Var.

Enrichment score, inactive:
TTEHIYGDKFF [UBA7_Y524_N527K] 0.651, KLKRSYPSPDI [USP8_Y717_S718P] 0.458, TQRPHYKGGGG [TYROBP_Y112_Y111H] 1.26, ADLTEYLSTHF [UQCRC1_Y219_YF] 0.924, KDFTIHNPNLL [VANGL1_Y290_Y290H] 0.779, AEPNIYQEKLS [USP54_Y1233_D1231N] 0.722, HNELFYEAAEH [VANGL1_Y345_E347A_YF] 0.847, YEDALYTVLHR [UNC13D_Y61] 0.956, DLNATYRTIQG [U2SURP_Y634] 0.594, FKDVTYLTEEK [UBE3A_Y127] 0.994, YEDTLYTVLHR [UNC13D_Y61_A59T] 1, AEPDIYQEKLS [USP54_Y1233] 0.503, NDDDVYRSLEE [VAV2_Y142] 0.539, NTQRPHYKGGG [TYROBP_Y111_Y111H] 0.845, REIHDYIKHLG [UNC13C_Y308_D304E] 1.14, GPQSLYNGLVA [UCP2_Y79_R76Q] 0.502, GRKTLYSFFSP [UNG_Y8_Q4R] 0.959, LHAAAYRNALA [UQCRC2_Y182] 0.774, VDSNPYSRLMA [UBA5_Y53] 0.43

These binders were tested against SHP2 N-SH2 domain T52S in the same assay as above. Details: peptide library: pTyr-Var.

Enrichment score, inactive:
TTEHIYGDKFF [UBA7_Y524_N527K] 0.685, KLKRSYPSPDI [USP8_Y717_S718P] 0.591, TQRPHYKGGGG [TYROBP_Y112_Y111H] 1.26, ADLTEYLSTHF [UQCRC1_Y219_YF] 0.866, KDFTIHNPNLL [VANGL1_Y290_Y290H] 0.871, AEPNIYQEKLS [USP54_Y1233_D1231N] 0.736, HNELFYEAAEH [VANGL1_Y345_E347A_YF] 1.39, YEDALYTVLHR [UNC13D_Y61] 0.908, DLNATYRTIQG [U2SURP_Y634] 0.746, FKDVTYLTEEK [UBE3A_Y127] 1, YEDTLYTVLHR [UNC13D_Y61_A59T] 0.992, AEPDIYQEKLS [USP54_Y1233] 0.559, NDDDVYRSLEE [VAV2_Y142] 0.454, NTQRPHYKGGG [TYROBP_Y111_Y111H] 0.883, REIHDYIKHLG [UNC13C_Y308_D304E] 1.41, GPQSLYNGLVA [UCP2_Y79_R76Q] 0.455, GRKTLYSFFSP [UNG_Y8_Q4R] 1.2, LHAAAYRNALA [UQCRC2_Y182] 1.02, VDSNPYSRLMA [UBA5_Y53] 0.677

What follows are binders tested against SHP2 N-SH2 domain wild-type in the same assay as above. Details: peptide library: pTyr-Var.

Enrichment score, inactive:
TTEHIYGDKFF [UBA7_Y524_N527K] 0.705, KLKRSYPSPDI [USP8_Y717_S718P] 0.629, TQRPHYKGGGG [TYROBP_Y112_Y111H] 1.23, ADLTEYLSTHF [UQCRC1_Y219_YF] 0.978, KDFTIHNPNLL [VANGL1_Y290_Y290H] 1.08, AEPNIYQEKLS [USP54_Y1233_D1231N] 0.602, HNELFYEAAEH [VANGL1_Y345_E347A_YF] 0.912, YEDALYTVLHR [UNC13D_Y61] 1.08, DLNATYRTIQG [U2SURP_Y634] 0.728, FKDVTYLTEEK [UBE3A_Y127] 0.976, YEDTLYTVLHR [UNC13D_Y61_A59T] 1.08, AEPDIYQEKLS [USP54_Y1233] 0.732, NDDDVYRSLEE [VAV2_Y142] 0.541, NTQRPHYKGGG [TYROBP_Y111_Y111H] 1.15, REIHDYIKHLG [UNC13C_Y308_D304E] 1.23, GPQSLYNGLVA [UCP2_Y79_R76Q] 0.595, GRKTLYSFFSP [UNG_Y8_Q4R] 1.28, LHAAAYRNALA [UQCRC2_Y182] 0.586, VDSNPYSRLMA [UBA5_Y53] 0.526
